Reference: the CheMixHub viscosity set

SMILES	viscosity (298.15 K, 101 kPa)	viscosity (298.15 K, 101.33 kPa)	viscosity (303 K, 101 kPa)	viscosity (303.15 K, 101 kPa)	viscosity (303.15 K, 101.33 kPa)	viscosity (308.15 K, 101 kPa)	viscosity (308.15 K, 101.33 kPa)	viscosity (313 K, 101 kPa)	viscosity (303.15 K, 100 kPa)	viscosity (308.15 K, 100 kPa)	viscosity (313.15 K, 100 kPa)	viscosity (318.15 K, 100 kPa)	viscosity (293.15 K, 101 kPa)	viscosity (313.15 K, 101 kPa)	viscosity (323.15 K, 101 kPa)
C1CCCCC1	0.8824 ± 0.023 mPa·s, 0.9287 ± 0.012 mPa·s, 0.9006 ± 0.0057 mPa·s, 0.8876 ± 0.023 mPa·s, 0.8859 ± 0.011 mPa·s, 0.8887 ± 0.0088 mPa·s, 0.888 ± 0.009 mPa·s, 0.877 ± 0.023 mPa·s, 0.8829 ± 0.011 mPa·s, 0.889 ± 0.009 mPa·s [several studies]	0.8856 ± 0.023 mPa·s, 0.869 ± 0.023 mPa·s, 0.9009 ± 0.011 mPa·s, 0.9062 ± 0.0077 mPa·s, 0.883 ± 0.006 mPa·s, 0.876 ± 0.011 mPa·s, 0.877 ± 0.022 mPa·s, 0.814 ± 0.021 mPa·s, 0.8958 ± 0.0086 mPa·s [several studies]	0.93 ± 0.02 mPa·s [study A] and 0.8047 ± 0.0055 mPa·s, 0.8044 ± 0.0055 mPa·s, 0.805 ± 0.0055 mPa·s, 0.8049 ± 0.0055 mPa·s [study B]	0.819 ± 0.016 mPa·s (2×), 0.82 ± 0.007 mPa·s, 0.799 ± 0.01 mPa·s, 0.8195 ± 0.0091 mPa·s, 0.818 ± 0.008 mPa·s, 0.8192 ± 0.021 mPa·s, 0.786 ± 0.021 mPa·s, 0.819 ± 0.008 mPa·s, 0.7976 ± 0.0095 mPa·s, 0.8007 ± 0.012 mPa·s [several studies]	0.751 ± 0.075 mPa·s [study A] and 0.702 ± 0.009 mPa·s [study B] and 0.804 ± 0.021 mPa·s [study C] and 0.749 ± 0.019 mPa·s [study D] and 0.8224 ± 0.0079 mPa·s [study E]	0.763 ± 0.007 mPa·s [study A] and 0.753 ± 0.008 mPa·s [study B] and 0.7878 ± 0.0065 mPa·s [study C] and 0.7546 ± 0.02 mPa·s [study D] and 0.7558 ± 0.0081 mPa·s [study E] and 0.7634 ± 0.0049 mPa·s [study F]	0.757 ± 0.0096 mPa·s [study A] and 0.644 ± 0.009 mPa·s [study B] and 0.737 ± 0.019 mPa·s [study C] and 0.744 ± 0.005 mPa·s [study D] and 0.692 ± 0.018 mPa·s [study E] and 0.7575 ± 0.0074 mPa·s [study F]	0.81 ± 0.02 mPa·s [study A] and 0.6878 ± 0.0048 mPa·s, 0.6879 ± 0.0048 mPa·s, 0.6877 ± 0.0048 mPa·s, 0.687 ± 0.0048 mPa·s [study B]							
COc1ccccc1N									4.922 ± 0.068 mPa·s [study A] and 4.923 ± 0.2 mPa·s [study B] and 4.92 ± 0.13 mPa·s [study C] and 4.923 ± 0.15 mPa·s [study D] and 4.923 ± 0.2 mPa·s [study E] and 4.922 ± 0.1 mPa·s [study F]	4.512 ± 0.067 mPa·s [study A] and 4.571 ± 0.19 mPa·s [study B] and 4.51 ± 0.12 mPa·s [study C] and 4.571 ± 0.14 mPa·s [study D] and 4.571 ± 0.18 mPa·s [study E] and 4.512 ± 0.095 mPa·s [study F]	4.185 ± 0.066 mPa·s [study A] and 4.217 ± 0.17 mPa·s [study B] and 4.19 ± 0.11 mPa·s [study C] and 4.217 ± 0.13 mPa·s [study D] and 4.217 ± 0.17 mPa·s [study E] and 4.185 ± 0.088 mPa·s [study F]	3.883 ± 0.065 mPa·s [study A] and 3.883 ± 0.16 mPa·s [study B] and 3.88 ± 0.1 mPa·s [study C] and 3.886 ± 0.082 mPa·s [study D]			
COC(C)=O		0.385 ± 0.006 mPa·s [study A] and 0.388 ± 0.012 mPa·s [study B] and 0.391 ± 0.006 mPa·s [study C] and 0.391 ± 0.044 mPa·s [study D] and 0.364 ± 0.004 mPa·s [study E]		0.37 ± 0.031 mPa·s [study A] and 0.365 ± 0.022 mPa·s [study B] and 0.372 ± 0.01 mPa·s [study C] and 0.3863 ± 0.006 mPa·s [study D] and 0.3524 ± 0.0045 mPa·s [study E] and 0.3524 ± 0.0032 mPa·s [study F] and 0.37 ± 0.008 mPa·s [study G]	0.366 ± 0.006 mPa·s [study A] and 0.371 ± 0.011 mPa·s [study B] and 0.3442 ± 0.0033 mPa·s [study C] and 0.372 ± 0.006 mPa·s [study D] and 0.372 ± 0.042 mPa·s [study E] and 0.365 ± 0.003 mPa·s [study F]	0.352 ± 0.03 mPa·s [study A] and 0.349 ± 0.021 mPa·s [study B] and 0.354 ± 0.01 mPa·s [study C] and 0.3695 ± 0.0059 mPa·s [study D] and 0.33 ± 0.009 mPa·s [study E] and 0.357 ± 0.008 mPa·s [study F]	0.348 ± 0.006 mPa·s [study A] and 0.352 ± 0.011 mPa·s [study B] and 0.355 ± 0.006 mPa·s [study C] and 0.355 ± 0.041 mPa·s [study D] and 0.349 ± 0.003 mPa·s [study E]								
CCC(C)=O	0.404 ± 0.011 mPa·s, 0.379 ± 0.012 mPa·s, 0.3856 ± 0.0053 mPa·s, 0.3856 ± 0.0075 mPa·s, 0.3856 ± 0.0052 mPa·s (2×), 0.4 ± 0.0038 mPa·s, 0.4 ± 0.004 mPa·s, 0.39 ± 0.01 mPa·s, 0.4094 ± 0.023 mPa·s, 0.394 ± 0.0043 mPa·s [several studies]			0.3712 ± 0.0055 mPa·s [study A] and 0.383 ± 0.019 mPa·s [study B] and 0.37 ± 0.01 mPa·s [study C] and 0.378 ± 0.004 mPa·s [study D] and 0.3885 ± 0.01 mPa·s [study E] and 0.367 ± 0.011 mPa·s [study F]		0.3542 ± 0.0054 mPa·s [study A] and 0.344 ± 0.018 mPa·s [study B] and 0.3547 ± 0.0095 mPa·s [study C] and 0.355 ± 0.01 mPa·s [study D] and 0.344 ± 0.0048 mPa·s [study E] and 0.344 ± 0.0067 mPa·s [study F] and 0.344 ± 0.005 mPa·s [study G] and 0.344 ± 0.005 mPa·s [study H]			0.3827 ± 0.0061 mPa·s [study A] and 0.383 ± 0.016 mPa·s [study B] and 0.37 ± 0.04 mPa·s [study C] and 0.367 ± 0.005 mPa·s [study D]		0.3499 ± 0.0058 mPa·s [study A] and 0.304 ± 0.012 mPa·s [study B] and 0.34 ± 0.03 mPa·s [study C] and 0.333 ± 0.004 mPa·s [study D]		0.4054 ± 0.0058 mPa·s [study A] and 0.397 ± 0.004 mPa·s [study B] and 0.411 ± 0.011 mPa·s [study C] and 0.428 ± 0.011 mPa·s [study D]	0.3368 ± 0.0053 mPa·s [study A] and 0.326 ± 0.004 mPa·s [study B] and 0.349 ± 0.0091 mPa·s [study C] and 0.334 ± 0.011 mPa·s [study D]	0.3036 ± 0.0051 mPa·s [study A] and 0.3148 ± 0.0036 mPa·s [study B] and 0.3203 ± 0.02 mPa·s [study C] and 0.306 ± 0.011 mPa·s [study D]

± gives the uncertainty stated by the source. For part of its entries the source gives two or more results. They are shown here; other results are not. There may be further records. Values that stand side by side are repeats (runs, samples, wells, individuals or studies). Brackets tell where a record comes from. Letters count within one entry. Marks such as (2×) count equal records among those shown.
